PubChem BioAssay AID1346428 (National Center for Advancing Translational Sciences (NCATS), 2018)
In all, about 48,000 compounds went through this assay and about 1,200 (2.5%) were called active. Roughly 2% stayed inconclusive and do not appear here.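 Rule for the calls: active = activation of at least 60% and not above a set upper limit (about 1 call in 100 departs from these limits); inconclusive = activation of 40% to 60%, or above that upper limit; inactive = activation under 40%.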 The list shows a part of the results.

Biological target: Probable G-protein coupled receptor 32 (Homo sapiens) (UniProt O75388)
Sequence of UniProt O75388 (O75388 whole entry, looked up): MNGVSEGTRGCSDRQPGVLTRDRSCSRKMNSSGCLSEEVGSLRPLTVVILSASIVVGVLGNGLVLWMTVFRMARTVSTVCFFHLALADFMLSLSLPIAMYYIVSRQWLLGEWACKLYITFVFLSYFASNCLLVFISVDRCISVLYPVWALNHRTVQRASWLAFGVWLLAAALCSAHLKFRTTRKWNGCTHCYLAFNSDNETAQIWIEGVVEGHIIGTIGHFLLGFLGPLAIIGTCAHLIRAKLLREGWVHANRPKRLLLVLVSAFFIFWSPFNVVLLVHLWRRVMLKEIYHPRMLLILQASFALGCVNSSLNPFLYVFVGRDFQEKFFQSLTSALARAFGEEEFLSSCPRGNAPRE
Test: qHTS for Agonists of Human Resolvin D1 Receptor DRV1; note: 0% is about no effect
Conditions: CHO-K1 GPR32 beta-arrestin PathHunter luminescence, 90 min; at 76.9 µM; active compounds read high; zero percent set by DMSO-only wells
Outline: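 CHO-K1 cells stably expressing ProLink-tagged GPR32 and Enzyme Activator-tagged beta-arrestin were seeded at 2,500 cells/well overnight, exposed to compounds for 90 min at 37 °C, then read by beta-Gal complementation chemiluminescence after 1 h detection reagent.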

activation, inactive:
COc1ccc(CNC(=O)c2ccc3c(c2)N(Cc2ccc(C)cc2)CCS3)cc1 -20.3%, COc1ccc(CSc2nc3ccncc3n2CC(=O)Nc2ccc(C)c(F)c2)cc1 -5.47%, CCc1ccccc1NC(=O)Cn1c(=O)n(-c2ccc(CC(=O)NCC3CCCO3)cc2)c(=O)c2ccccc21 (centres undefined) -15.7%, CCOC(=O)c1cnc2nc(NCc3cccc(Br)c3)[nH]n2c1=O 25.6%, Cc1cc(C)cc(-n2ccn(Cc3ccccc3C)c(=O)c2=O)c1 -26.3%, COc1ccc(CCNC(=O)CCS(=O)(=O)c2cc(Br)cc3c2N(C(C)=O)CC3)cc1OC 1.12%, Cc1cc(C)cc(NC(=O)C2CCCN2S(=O)(=O)c2ccc3c(c2)CCCC(=O)N3)c1 (centres undefined) 48.8%, COc1ccccc1CNC(=O)CC(c1ccc(C)cc1)N1Cc2ccccc2C1=O (centres undefined) -0.956%, COc1ccc2c(c1)Cc1sc(NC(=O)c3cccc(C)c3)nc1-2 -60.3%, Cc1ccc(CNC(=O)C2COc3ccccc3C2)cc1 (centres undefined) -14.5%, Clc1ccc(-c2nc3c4cnn(-c5ccccc5Br)c4ncn3n2)c(Cl)c1 -0.228%, COC(=O)CSc1nc2sc3c(c2c(=O)n1-c1ccccc1C)CC(C)(C)OC3 -1.98%, Cc1oc(-c2ccc(C(=O)NCCC(C)C)cc2)nc1CN1CCc2ccccc21 -0.688%, Cc1ccccc1NC(=O)c1sc2nc3n(c(=O)c2c1C)CCC3 -6.62%, CCc1ccc(NS(=O)(=O)c2cc(-c3cnc(C4CC4)o3)ccc2C)cc1 -20.7%, Cc1ccc(OCC(=O)OC2=C(C(=O)c3ccccc3)N(C)S(=O)(=O)c3ccccc32)cc1 -67.2%, COc1cc(C(=O)NC(c2ccc(Cl)cc2)c2cc(Cl)c3cccnc3c2O)cc(OC)c1OC (centres undefined) -33.6%, CCc1cccc(C)c1NC(=O)CN1CCCN(Cc2ccccc2Cl)S1(=O)=O -6.83%, COc1cc(C2c3c(-c4ccccc4O)n[nH]c3C(=O)N2Cc2ccco2)ccc1OCC(C)C (centres undefined) 12.3%, CCOc1ccccc1NC(=O)C(CC)n1c(C(=O)OC)cc2occc21 (centres undefined) -41.9%, O=C(Cn1ncc2ccsc2c1=O)N1CCN(c2ccccc2F)CC1 -13%, CCCCN(CC)CCNC(=O)C1CCCN(S(=O)(=O)c2cccc3nsnc23)C1 (centres undefined) -11.4%, COc1ccc(N(C(=O)/C=C\C(=O)Nc2ccc(C)cc2)C(C(=O)NCc2ccco2)c2ccc(C)cc2)cc1 (centres undefined) -20.4%, CCCn1c(=NC(=O)c2cc3ccccc3o2)c(C(=O)OCC)cc2c(=O)n3ccccc3nc21 -5.12%, COc1ccc(Nc2oc(/C=C/c3cccc(OC)c3)nc2C#N)cc1 11%, Cc1c(C(=O)N2CCCCCC2)c(S(=O)(=O)N(Cc2ccccc2)C(C)(C)C)c(C)n1C -9.54%, O=S(=O)(c1ccc(-n2cnnn2)cc1)N1CCN(c2cccc(Cl)c2)CC1 5.95%, O=c1cc(-c2ccccc2)n2c(SCc3c(F)cccc3Cl)nnc2[nH]1 -9.94%, Cc1ccc(-n2c(=O)c3cccnc3n2CC(=O)Nc2cc(Cl)ccc2C)cc1 -1.59%, COc1ccccc1OCC(=O)NCC(c1ccc(Cl)cc1)N1CCOCC1 (centres undefined) -7.97%, Cc1ccc(C)c(CN2C(=O)c3ccccc3S(=O)c3ccc(C(=O)N4CCN(c5cccc(Cl)c5)CC4)cc32)c1 (centres undefined) -1.6%, Cc1ccc(NC(=O)Cn2c(=O)n(CCCCC(=O)NCc3ccccc3Cl)c(=O)c3ccccc32)cc1 11.7%, Cc1ccc(NC(=O)C(=O)NCc2ccco2)cc1 26.2%, Cc1ccc(NC(=O)CN(C)S(=O)(=O)c2cnc[nH]2)cc1 6%, CC(C)CC(=O)NC1(C(F)(F)F)C(=O)Nc2c1c(=O)[nH]c(=O)n2-c1ccccc1 (centres undefined) -4.95%, COc1ccc(C(CC(=O)NCc2ccccc2Cl)N2Cc3ccccc3C2=O)cc1OC (centres undefined) 0.706%, CCCc1nn2c(=O)cc(COc3ccc(/C=C(\C#N)C(=O)Nc4ccccc4)cc3)nc2s1 21%, COC(=O)c1cc2sc(Cl)cc2n1Cc1cc(C)ccc1C -20.5%, CCOc1ccc(CNC(=O)CCCc2cn(C)c3ccccc23)cc1OC -21.4%, CCOc1cc2sc(N3CCC(C(=O)Nc4cc(C)cc(C)c4)CC3)nc2cc1Br 3.1%, Cc1cc(=O)c2cc(C(=O)Nc3ccccc3C)ccc2[nH]1 -3.27%, CCc1ccccc1NC(=O)Cn1c2ncccc2c(=O)n1-c1ccccc1 -8.92%, COc1ccc(Cn2ccc3nc(C)c(C(=O)NCc4cccc(OC)c4)cc3c2=O)cc1 -12.4%, Cc1ccc(-n2nc3c(=O)n(CC(=O)NCC(C)c4ccccc4)nc(C)c3c2C)cc1 (centres undefined) 27.1%, COC(=O)c1ccc(CSc2nnc3ccc4ccccc4n23)cc1 -3.84%, COc1cc(F)c(S(=O)(=O)Nc2c(C)n(C)n(-c3ccccc3)c2=O)cc1OC -4.13%, CCn1cc2c(n1)-c1c(oc(C(=O)Nc3cccc(C(F)(F)F)c3)c1C)CC2 16.2%, COc1ccccc1Cn1cc(C(=O)c2ccc(C)cc2)c(=O)c2cc3c(cc21)OCCO3 43.1%, COc1ccc(CCNC(=O)CCCCn2c(=O)c3ccccc3n(Cc3ccccc3Cl)c2=O)cc1OC -0.485%, CCCN(Cc1cccs1)C(=O)Nc1cc(OC)ccc1OC -15.8%, Cc1ccc(N(C)C(=O)c2cc(S(=O)(=O)N3CCOCC3)cn2C)cc1 -14.7%, O=C(CN1CCSc2ccccc21)N1CCN(c2ccc(F)cc2)CC1 -22.4%, COc1ccc(C(=O)Nc2ccc(C(=O)OCc3cc(=O)n4nc(C5CC5)sc4n3)cc2)cc1 3.74%, COc1ccccc1-c1noc(CCCC(=O)Nc2cc(C)ccc2C)n1 -4.86%
